According to US20250243254A1 (CUE BIOPHARMA, published 2025):

B1: CUE-1646 (WT IL-2-FLAG) (ligand)
chain: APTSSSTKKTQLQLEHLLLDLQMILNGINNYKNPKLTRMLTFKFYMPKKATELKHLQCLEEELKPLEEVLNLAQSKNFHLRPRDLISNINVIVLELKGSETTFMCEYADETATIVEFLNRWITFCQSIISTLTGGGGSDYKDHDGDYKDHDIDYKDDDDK
notes: also called WT IL-2 construct
B2: CUE-1647 (H16A; F42A mutant IL-2-FLAG) (ligand)
chain: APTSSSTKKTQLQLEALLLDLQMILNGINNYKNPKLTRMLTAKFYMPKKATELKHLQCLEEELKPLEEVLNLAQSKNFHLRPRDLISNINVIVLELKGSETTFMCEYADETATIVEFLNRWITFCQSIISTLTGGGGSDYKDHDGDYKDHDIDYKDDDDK
notes: also called double mutant; mutant IL-2 construct

What was measured:
[1] = molecular target: T1, human IL-2Rβ-Fc (human, UniProt P14784 28-240, limits assumed); test: BLI (Octet Red96e), human IL-2Rβ-Fc captured on AHC biosensors, global 1:1 fit, average of triplicate experiments
T1 construct: Receptor-Fc immobilised on AHC biosensors; also called IL-2Rβ subunit; CD122; not shown: Fc part (captured by anti-human IgG Fc biosensors)
T1 sequence: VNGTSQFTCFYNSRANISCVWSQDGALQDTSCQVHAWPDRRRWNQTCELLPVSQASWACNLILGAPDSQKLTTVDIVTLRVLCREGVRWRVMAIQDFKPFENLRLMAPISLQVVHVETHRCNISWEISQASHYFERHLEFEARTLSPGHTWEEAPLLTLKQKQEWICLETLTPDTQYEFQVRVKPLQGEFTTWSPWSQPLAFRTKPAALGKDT
Procedure: (§1) Kinetic measurements were performed using bio-layer interferometry on ForteBio's Octet Red96e using anti-Human IgG Fc capture (AHC) for human IL-2R. All experiments were performed at 30° C. with the orbital shake speed of 1000 rpm. Samples were diluted in assay buffer of 25 mM HEPES, pH 6.8, 50 mM KCl, 5% polyethylene glycol (PEG) 6000, 0.1% bovine serum albumin (BSA), 0.02% Tween20 in a 96-well non-binding black plate (Greiner 655900).
(§2) All proteins were diluted in assay buffer containing 25 mM HEPES, pH 6.8, 50 mM KCl, 5% PEG 6000, 0.1% BSA, 0.02% Tween20. The receptor ligands were prepared to a final concentration of 20 nM for IL-2Rα-Fc, and 25 nM for IL-2Rβ-Fc, and dispensed into a column of a 96-well non-binding plate at a volume of 200 μl/well. […] The analytes were added to the 96-well plate at 200 μl/well. Kinetic measurements were made with appropriate concentration ranges depending on signal and robustness of fit.
(§3) Raw data was processed and analyzed with ForteBio's Data Analysis 11.0 software. For each run the varying analyte concentrations were subtracted from their corresponding reference well to compensate for any background drift. The sensorgrams Y-axis were aligned to the baseline for a common reference point, and the inter-step correction was aligned to dissociation to correct for any misalignments between the association and dissociation steps. The sensorgrams were processed with a Savitzky-Golay Filtering to remove any high-frequency noise from the curves. The processed curves were globally fit to a 1:1 binding model [Hahnefeld et al. (2004) Methods in Molecular Medicine 94:299]. […] This may be due to low signal amplitude to noise. […] Rat IL-2Rα-his binding experiments were performed in duplicate.

[2] = molecular target: T2, human IL-2Rα-Fc (human, UniProt P01589 22-240, limits assumed); test: BLI (Octet Red96e), human IL-2Rα-Fc captured on AHC biosensors, global 1:1 fit, average of triplicate experiments
T2 construct: Receptor-Fc immobilised on AHC biosensors; also called IL-2Rα subunit; CD25; not shown: Fc part (captured by anti-human IgG Fc biosensors)
T2 sequence: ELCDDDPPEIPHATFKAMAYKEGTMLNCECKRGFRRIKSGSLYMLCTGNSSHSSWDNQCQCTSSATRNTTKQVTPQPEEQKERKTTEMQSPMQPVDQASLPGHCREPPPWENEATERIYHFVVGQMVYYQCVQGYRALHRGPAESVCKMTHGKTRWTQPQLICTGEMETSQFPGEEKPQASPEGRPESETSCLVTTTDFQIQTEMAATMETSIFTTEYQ
Procedure: as §1, §2, §3

Row | Kd [1] | koff [1] | kon [1] | Kd [2] | koff [2] | kon [2] | Binder
1 | 197 nM | 0.12 s⁻¹ | 590000 M⁻¹ s⁻¹ | 10.7 nM | 0.0058 s⁻¹ | 550000 M⁻¹ s⁻¹ | B1
2 | 613 nM | 0.44 s⁻¹ | 710000 M⁻¹ s⁻¹ | 1180 nM | 0.524 s⁻¹ | 310000 M⁻¹ s⁻¹ | B2
